Results as given in PubChem BioAssay (NCATS).
This is one part of the list. These are further read-outs of the screen, such as a control signal, another cell line or another target. No call is given for them. Compounds called inactive in the main read-out are mostly missing here. The note in brackets gives the kind of curve behind each potency; many fits are weak.

Assay: qHTS Assay for Lipid Storage Modulators (AID 1519)
Conditions: Drosophila S3 cells, BODIPY lipid droplet/cell ratio, laser cytometry, cells loaded with oleic acid
How it was run: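 Cells seeded at 5,000 per well were treated with compounds over a concentration series and loaded with oleic acid (400 uM, as added). Lipid droplet fluorescence (488 nm excitation, 500-530 nm channel) was read by laser-scanning cytometry and normalized to 20 uM Triacsin C.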

[1] = measured here: cell count channel max response
[2] = measured here: lipid (BODIPY) channel AC50
[3] = measured here: lipid channel max response
[4] = measured here: cell number channel AC50
Tags describe the fitted curve by direction and shape.

Row | Compound | max response [1] [%] | AC50 [2] | max response [3] [%] | AC50 [4]
1 | O=c1c(-c2ccc(Cl)cc2)nc2cnc(Oc3ccccc3)nc2n1C1CC1 | 6.18 | 0.0794 µM [rising, full curve] | 0.832 | –
2 | COC(=O)C1C(O)CC[C@@H]2CN3CCc4c([nH]c5ccccc45)C3C[C@@H]12 (some centres undefined) | 22.2 | 39.8 µM [rising, single point] | 34 | –
3 | COc1ccc2c(c1)OC/C(=C/c1ccc(OC)c(OC)c1)C2=O | 4.43 | 0.398 µM [rising, full curve] | 10.1 | –
4 | CN1CCN(c2ncc3nc(-c4ccc(Cl)cc4)c(=O)n(CCC#N)c3n2)CC1 | 29 | 20 µM [rising, partial curve, poor fit] | 39.2 | –
5 | O=C(c1csnn1)N1CCC[C@@]2(CCN(c3cccc(-c4ccccc4)c3)C2)C1 | -7.92 | 3.55 µM [rising, partial curve, poor fit] | -16.5 | –
6 | COCCn1c(=O)c(-c2cn(C)c3ccccc23)nc2cnc(N3CCNCC3)nc21 | 23.6 | 2.82 µM [rising, full curve, poor fit] | 27.6 | –
7 | O=C(c1csnn1)N1CCC2(CCCN(c3ncccn3)C2)CC1 | 13.6 | – | 21.9 | 5.01 µM [rising, partial curve]
8 | CC(=C(CCOP(=O)(O)O)SC(=O)c1ccccc1)N(C=O)Cc1cnc(C)nc1N | 29.9 | 31.6 µM [rising, single point] | 52.7 | –
9 | CCNc1ncc2nc(-c3cc(F)cc(F)c3)c(=O)n(CCc3ccccc3)c2n1 | -12.1 | – | -104 | 0.398 µM [rising, full curve, poor fit]
10 | O=c1c(O)c(-c2ccccc2)oc2cc(O)cc(O)c12 | 28.3 | 39.8 µM [rising, single point] | 35.2 | –
11 | COC(=O)N1CCC[C@@]2(CCN(Cc3nccs3)C2)C1 | 21.2 | 0.00794 µM [rising, full curve, poor fit] | 30.2 | –
12 | O=C(c1ccncc1)N1CCC2(CCN(Cc3cc(C(F)(F)F)cc(C(F)(F)F)c3)CC2)CC1 | 22.8 | 11.2 µM [rising, partial curve, poor fit] | 32.1 | –
13 | O=c1n(CCCN2CCN(c3cccc(Cl)c3)CC2)nc2ccccn12 | 0.868 | 1.12 µM [rising, partial curve, poor fit] | 2.02 | –
14 | COCCn1c(=O)c(-c2ccc(F)cc2)nc2cnc(Oc3cccc(Cl)c3)nc21 | 18.9 | 0.0316 µM [rising, full curve, poor fit] | 18.2 | –
15 | O=c1c(CCc2ccccc2)nc2cnc(N3CCOCC3)nc2n1CCc1ccccc1 | 26 | 1 µM [rising, full curve] | 32.9 | –
16 | N#CCCn1c(=O)c(-c2ccc(F)cc2)nc2cnc(Oc3cccc(Cl)c3)nc21 | 15.8 | 0.562 µM [rising, partial curve, poor fit] | 21.3 | –
17 | COc1cccc2c1C(=O)c1c(O)c3c(c(O)c1C2=O)C[C@](O)(C(=O)CO)C[C@H]3O[C@@H]1C[C@H](N)[C@H](O)[C@H](C)O1 | -44.1 | 5.01 µM [falling, partial curve] | -70 | –
18 | CCOC(=O)NNc1nncc2ccccc12 | 23.3 | 20 µM [rising, partial curve] | 42.9 | –
19 | CN(Cc1ccco1)c1ccnc(-c2ccoc2)n1 | 24.7 | 39.8 µM [rising, single point] | 32.2 | –
20 | COc1ccc(C2COc3c(ccc(O)c3OC)C2)c(OC)c1O (centres undefined) | 26.2 | 39.8 µM [rising, single point] | 41.8 | –
21 | COc1ccccc1OCC(O)COC(N)=O (centres undefined) | 17.2 | 39.8 µM [rising, single point] | 34.7 | –
22 | CC(=O)OC1CC2C(C)(C)C(=O)CC[C@]2(C)C2CC[C@]3(C)C(=CC(=O)OC3c3ccoc3)[C@]12C (some centres undefined) | 14.3 | 39.8 µM [rising, single point] | 35.5 | –
23 | O=S(=O)(c1ccccc1)N1CCC2(CCCN(c3ccncc3)C2)CC1 | -25.7 | 39.8 µM [falling, single point] | -71.4 | –
24 | CCNc1ncc2nc(CCc3ccccc3)c(=O)n(CCC#N)c2n1 | 14.2 | 2.24 µM [rising, partial curve] | 16.9 | –
25 | COc1cccc(Nc2ncc3nc(-c4ccc(F)cc4)c(=O)n(C[C@H]4CCCO4)c3n2)c1 | -10.2 | 15.8 µM [falling, single point] | -55.5 | –
26 | CN(C)c1ccc(-c2cc(N(C)Cc3ccco3)ncn2)cc1 | 21.5 | – | 4.9 | 7.94 µM [rising, partial curve, poor fit]
27 | O=c1c(CCc2ccccc2)nc2cnc(N3CCOCC3)nc2n1-c1ccccc1 | 19.4 | 0.891 µM [rising, full curve, poor fit] | 23 | –

Row | Compound | max response [1] [%] | AC50 [2] | max response [3] [%] | AC50 [4]
28 | CC1/C=C/C=C/C=C/C=C/C=C/C=C/C=C/C(OC2OC(C)C(O)C(N)C2O)CC2O[C@@](O)(CC(O)CC(O)C(O)CCC(O)CC(O)CC(=O)OC(C)[C@H](C)C1O)CC(O)C2C(=O)O (some centres undefined) | 16 | 35.5 µM [rising, single point] | 42.5 | –
29 | O=c1c(CCc2ccccc2)nc2cncnc2n1-c1ccccc1 | 10.6 | 0.0501 µM [rising, full curve, poor fit] | 20.9 | –
30 | COC(=O)N1CCC2(CC1)CN(C(=O)Nc1ccc(OC)cc1)C2 | 20.6 | 0.0141 µM [rising, full curve, poor fit] | 30.3 | –
31 | CS(=O)(=O)N1CCC2(CCCN(c3ncccn3)C2)CC1 | 17.3 | 0.0282 µM [rising, full curve, poor fit] | 25.8 | –
32 | COc1ccc2[nH]cc(CCNc3nc(-c4ccc(C(=O)N(C)C)cc4)nc4ccccc34)c2c1 | -6.5 | 0.01 µM [rising, full curve, poor fit] | 3.36 | –
33 | O=c1cnc2cnc(N3CCNCC3)nc2n1Cc1cccs1 | 25.9 | 0.00794 µM [rising, full curve, poor fit] | 37.6 | –
34 | O=c1c(-c2ccc(F)c(F)c2)nc2cncnc2n1Cc1ccccc1Cl | 11.7 | 0.0251 µM [rising, full curve, poor fit] | 15.4 | –
35 | O=C(c1ccco1)N1CCC2(CCCN(c3ncccn3)C2)CC1 | 24.3 | 0.0562 µM [rising, full curve] | 33.5 | –
36 | N[C@@H](Cc1cc(-c2ccc(Cl)cc2Cl)cc(CP(=O)(O)O)c1O)C(=O)O | 32.2 | – | 27.9 | 22.4 µM [rising, full curve, poor fit]
37 | CCNc1ncc2nc(CCc3ccccc3)c(=O)n(CCOC)c2n1 | 12.5 | 0.0224 µM [rising, full curve, poor fit] | 21.5 | –
38 | Cc1cnc(CNc2ncncc2-c2cccc(NS(C)(=O)=O)c2)cn1 | 22.7 | 2.51 µM [rising, full curve, poor fit] | 27.9 | –
39 | CN(C)CCOC(C)(c1ccccc1)c1ccccn1 (centres undefined) | 22.2 | 39.8 µM [rising, single point] | 45.4 | –
40 | Cc1cnc(CNc2ncncc2-c2ccccc2C)cn1 | 27.6 | 39.8 µM [rising, partial curve] | 36.7 | –
41 | COCCn1c(=O)c(-c2ccc(F)c(F)c2)nc2cncnc21 | 10.8 | 3.98 µM [rising, partial curve, poor fit] | 17.2 | –
42 | CC(=O)OC1CCC2(C)C3=C(CCC2C1(C)C)[C@@]1(C)CCC(C(C)CCC=C(C)C)[C@@]1(C)CC3 (some centres undefined) | 25 | 35.5 µM [rising, single point] | 46 | –
43 | O=C(c1cccc(F)c1)N1CCC2(CC1)CCN(c1ccc(-c3ccccc3)cc1)CC2 | 18.6 | 5.01 µM [rising, partial curve] | 27 | –
44 | COc1ccc(/C=C/C(=O)c2cc(O)ccc2O)cc1 | -0.0516 | 14.1 µM [falling, partial curve, poor fit] | -42.5 | –
45 | O=C(O)[C@H]1C[C@@H](CP(=O)(O)O)CCN1 | 26 | 31.6 µM [rising, single point] | 32 | –
46 | O=C(c1cccc(F)c1)N1CCC2(CCCN(c3ccc(-c4ccccc4)cc3)C2)CC1 | 32.9 | – | -50 | 3.16 µM [rising, partial curve]
47 | FC(F)(F)c1ccccc1-c1nc(-n2ccnc2)c2ccccc2n1 | 21.6 | – | 28.5 | 3.98 µM [rising, partial curve]
48 | COc1ccc(-n2c(=O)c(-c3ccc(Cl)cc3)nc3cnc(N4CCOCC4)nc32)cc1 | 19.9 | 0.178 µM [rising, full curve] | 25.5 | –
49 | COc1ncc2nc(C)c(=O)n(Cc3cccs3)c2n1 | 26.6 | 0.00562 µM [rising, full curve, poor fit] | 37.7 | –
50 | O=S(=O)(c1ccccc1)N1CCC2(CCCN(c3ccccc3)C2)CC1 | 3.79 | 0.0141 µM [rising, full curve, poor fit] | 6.58 | –
51 | COc1ccc2c(c1)OCC(Cc1ccc(OC)c(OC)c1)C2O (centres undefined) | 23.1 | 0.501 µM [rising, partial curve] | 37.1 | –
52 | N#CCCn1c(=O)c(-c2ccccc2)nc2cnc(N3CCNCC3)nc21 | 15.6 | 0.0398 µM [rising, full curve, poor fit] | 25.8 | –
53 | CCNc1ncc2nc(-c3cn(C)c4ccccc34)c(=O)n(CCC#N)c2n1 | 18.1 | – | 22.7 | 2.24 µM [rising, partial curve, poor fit]
